# Assay results taken from the supplement of paper PMC8728848.
# The other results are listed elsewhere or left out.
# B1: Epa1-NP-mutant-E227G (Candida glabrata), Q6VBJ0 (protein)
# chain: MILNPALFLNKCVCIYTTLILLLLTNGGYATSSNDISLASKDPTTFPLGCSPDITTPKKGLSMELYSYDFRKKGSYPCWDAAYLDPNYPRTGYKSHRLLAKVDGVTGNINFYYHATKGCTPQLGHLPASYNYPKPLTMTNFTMLLYGYFRPKVTGFHTFTISADDLLFVNFGAGNAFDCCRRDSSADHFGNYQAYAIWGSKTAKDELTVHLDAGVYYPIRLFYNNRGYDGALSFTFKTESNENTVSDFSEYFFSLDDTEEGCPGLISYDSSCASVKTSKIIGIDYHTETPNENLVPITKTIYHLGIPCTGTTTTPLCGSGFYDPLANKCVTINTSSTSSVTKTTSHTTSKEVSFHSSISSQKTLIPKSIPSPYGPIKSQSIPTEMETSSEISSSEYAFSDVISTPSHSPYTKKHSSLNSSSYTSTVIHSLTSYSISQGIFSTSLSEQNITSKSSTDKFSTATSMSNNITQSSIIISQFSTNNENYTTTSMHTSSDKISTETLNNSISTTTSILFSNSSTILKNNTTIISSDKDTHYHPVNPTIVCSTNKTEIICASITQPSISNSNNHWSSSVLKFNSTTVRSTLPSSAGSNETSINVPFSSSTESNTSTSSTSTSNSKMVRSTLPSSAGSNETSISVPFSSSTESNTSTSSTSTSNSKMVRSTLPSSAGSNETSINVPFSSSTESNTSTSSTSTSNSKTVRSTPFSSAGIIMTSLSQRNNKSASSYASSNSKCYNTADSCRKVHSTPSYLLTSSYTSEGVDYDCSLVSTKLKINDTNCVNNKHTTKSCLKTSVTTTIPTLEIKTARKSSSNTIGLHSYPTSSPNKSISSAPIIGYISSFKTIKTASPSYQTSDLTTITTITSLNNPGSTAVENTHESNDKSRKTSSNDISSKHSVIKETKDAVESSNKSHQTNTLKCSSIIIASSSHNSYESLGGTTLTLTLSKVYSPQNNDTLPFLEISEVNPSRTVLPESSKMMQYLTSTEERNKTARNTIATNIVSISTFHFEGEGNAIRMGYTQLLLMLIGIIVMNIGT
# How the values were obtained:
# Experiment in all cases: glycan array binding signal (z-score within array); higher = stronger binding
# Conditions in all cases: glycan notation: IUPAC condensed, linker removed; mutation: E227G
# GalNAc(b1-4)GlcNAc = target: GalNAc(b1-4)GlcNAc
# Method in brief: (§1)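 Glycan array data were curated from 3228 arrays in the Consortium for Functional Glycomics database and kept only where the protein sequence was available. Glycan names were converted to IUPAC-condensed notation, and columns mapping to the same glycan were averaged. The binding signal is a within-array Z-score, averaged across arrays of the same protein sequence at different concentrations or buffers and across linkers. Negative Z-scores can be read as non-binding.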
# [1] = target: GalNAc(b1-4)GlcNAc(b1-2)Man
# Method in brief: as §1
# [2] = target: GalNAc(b1-4)GlcNAc(b1-2)Man(a1-3)[GalNAc(b1-4)GlcNAc(b1-2)Man(a1-6)]Man(b1-4)GlcNAc(b1-4)GlcNAc
# Method in brief: as §1
# [3] = target: GalNAc(b1-4)GlcNAc(b1-3)GalNAc(b1-4)GlcNAc
# Method in brief: as §1
# GalNAc(b1-4)GlcNAc6S = target: GalNAc(b1-4)GlcNAc6S
# Method in brief: as §1
# GalNAc(b1-6)GalNAc = target: GalNAc(b1-6)GalNAc
# Method in brief: as §1
# GalNAc3S(b1-4)GlcNAc = target: GalNAc3S(b1-4)GlcNAc
# Method in brief: as §1
# GalNAc3S(b1-4)GlcNAc3S = target: GalNAc3S(b1-4)GlcNAc3S
# Method in brief: as §1
# [4] = target: GalNAc3S(b1-4)[Fuc(a1-3)]GlcNAc
# Method in brief: as §1
# GalNAc4S6S(b1-4)GlcNAc = target: GalNAc4S6S(b1-4)GlcNAc
# Method in brief: as §1
# GalNAc6S(b1-4)GlcNAc = target: GalNAc6S(b1-4)GlcNAc
# Method in brief: as §1
# Glc(a1-4)Glc = target: Glc(a1-4)Glc
# Method in brief: as §1
# [5] = target: Glc(a1-4)Glc(a1-4)Glc(a1-4)Glc
# Method in brief: as §1
# Glc(a1-6)Glc(a1-6)Glc = target: Glc(a1-6)Glc(a1-6)Glc
# Method in brief: as §1
# [6] = target: Glc(a1-6)Glc(a1-6)Glc(a1-6)Glc
# Method in brief: as §1
# Glc(b1-4)Glc = target: Glc(b1-4)Glc
# Method in brief: as §1
# Glc(b1-6)Glc = target: Glc(b1-6)Glc
# Method in brief: as §1
# GlcA(b1-3)Gal = target: GlcA(b1-3)Gal
# Method in brief: as §1
# GlcA(b1-3)GlcNAc = target: GlcA(b1-3)GlcNAc
# Method in brief: as §1
# GlcA(b1-6)Gal = target: GlcA(b1-6)Gal
# Method in brief: as §1
# [7] = target: GlcA3S(b1-3)Gal(b1-4)GlcNAc(b1-2)Man
# Method in brief: as §1
# [8] = target: GlcA3S(b1-3)Gal(b1-4)GlcNAc(b1-3)Gal(b1-4)Glc
# Method in brief: as §1
# [9] = target: GlcNAc(a1-3)Gal(b1-4)GlcNAc
# Method in brief: as §1
# [10] = target: GlcNAc(a1-4)Gal(b1-3)GlcNAc
# Method in brief: as §1
# [11] = target: GlcNAc(a1-4)Gal(b1-4)GalNAc
# Method in brief: as §1
# [12] = target: GlcNAc(a1-4)Gal(b1-4)GlcNAc
# Method in brief: as §1
# [13] = target: GlcNAc(a1-4)Gal(b1-4)GlcNAc(b1-3)Gal(b1-4)Glc
# Method in brief: as §1
# [14] = target: GlcNAc(a1-4)Gal(b1-4)GlcNAc(b1-3)Gal(b1-4)GlcNAc
# Method in brief: as §1
# [15] = target: GlcNAc(a1-4)Gal(b1-4)GlcNAc(b1-3)Gal(b1-4)GlcNAc(b1-3)Gal(b1-4)GlcNAc
# Method in brief: as §1
# [16] = target: GlcNAc(a1-4)Gal(b1-4)GlcNAc(b1-3)Gal(b1-4)[Fuc(a1-3)]GlcNAc(b1-3)Gal(b1-4)[Fuc(a1-3)]GlcNAc
# Method in brief: as §1
binder,measurement,setting,value
B1,glycan array binding signal (z-score),GalNAc(b1-4)GlcNAc,-0.103
same,glycan array binding signal (z-score),[1],-0.204
same,glycan array binding signal (z-score),[2],-0.164
same,glycan array binding signal (z-score),[3],-0.194
same,glycan array binding signal (z-score),GalNAc(b1-4)GlcNAc6S,-0.066
same,glycan array binding signal (z-score),GalNAc(b1-6)GalNAc,-0.146
same,glycan array binding signal (z-score),GalNAc3S(b1-4)GlcNAc,0.001
same,glycan array binding signal (z-score),GalNAc3S(b1-4)GlcNAc3S,-0.147
same,glycan array binding signal (z-score),[4],-0.117
same,glycan array binding signal (z-score),GalNAc4S6S(b1-4)GlcNAc,-0.22
same,glycan array binding signal (z-score),GalNAc6S(b1-4)GlcNAc,-0.232
same,glycan array binding signal (z-score),Glc(a1-4)Glc,-0.175
same,glycan array binding signal (z-score),[5],-0.19
same,glycan array binding signal (z-score),Glc(a1-6)Glc(a1-6)Glc,-0.08
same,glycan array binding signal (z-score),[6],-0.087
same,glycan array binding signal (z-score),Glc(b1-4)Glc,-0.154
same,glycan array binding signal (z-score),Glc(b1-6)Glc,-0.141
same,glycan array binding signal (z-score),GlcA(b1-3)Gal,-0.114
same,glycan array binding signal (z-score),GlcA(b1-3)GlcNAc,-0.203
same,glycan array binding signal (z-score),GlcA(b1-6)Gal,0.489
same,glycan array binding signal (z-score),[7],-0.248
same,glycan array binding signal (z-score),[8],-0.278
same,glycan array binding signal (z-score),[9],-0.195
same,glycan array binding signal (z-score),[10],-0.054
same,glycan array binding signal (z-score),[11],-0.296
same,glycan array binding signal (z-score),[12],-0.066
same,glycan array binding signal (z-score),[13],-0.145
same,glycan array binding signal (z-score),[14],-0.063
same,glycan array binding signal (z-score),[15],-0.1
same,glycan array binding signal (z-score),[16],0.002
